# In PubChem BioAssay AID1963576 (National Center for Advancing Translational Sciences (NCATS), 2024):
# In all, about 46,000 compounds went through this assay and about 60 (0.1%) were called active. Not shown: some 3% with an inconclusive outcome. The call rests on the fitted dose curve; in most records, active means well fitted inhibition curve with a large enough effect; inconclusive means small, poorly fitted or top-dose-only effect; inactive means no such curve, though single readings can be large or run the other way. The list shows a part of the results.
# Assay: Primary qHTS assay for Inhibitors of ovarian cancer metastasis using an organotypic tumor microenvironment (TME) model. Further: nearly all actives have a fitted effect of over 65% in size.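 On activity change, negative = inhibition: plate controls were DMSO wells for no effect and tomatine positive control wells for full effect.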
# Conditions: SKOV3ip1-GFP adhesion/invasion on 3D omental model, fluorescence; series mostly up to 45.8 µM; activity change, negative = inhibition: at the top concentration
# In short: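 qHTS, 4-pt dose (0.36-46 umol/L); SKOV3ip1-GFP, 1,200 cells/well, no FBS; primary omental fibroblast/mesothelial co-culture 48 h pre-grown; 2 h RT + 16 h 37 C; PBS wash, 4% PFA; GFP count 488/509 nm.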
SMILES,"activity change, negative = inhibition",outcome
O=C(CSc1oc(-c2ccco2)nc1S(=O)(=O)c1ccc(Cl)cc1)Nc1ccc(F)cc1,inactive: 2.38%,–
CCCCCCC1CCC(C(=O)NC(C(=O)O)C(C)C)CC1 (stereo not given),inactive: -1.62%,–
COc1ccc(-c2nc3ccccc3n3c(-c4ccccc4)c4c(=O)n(C)c(=O)n(C)c4c23)cc1,inactive: -23.2%,–
CC(C)c1ccc(NC(=O)CSC2=Nc3ccccc3C3=NC(CC(=O)NC4CCCCC4)C(=O)N23)cc1 (stereo not given),inactive: -15.3%,–
CC1CN(C(=O)Nc2ccc(C(=O)NCCc3ccccc3Cl)cc2)c2ccccc2S1 (stereo not given),inactive: -0.0859%,–
O=C(Nc1ccc(Cl)cc1)C1CCN(S(=O)(=O)c2ccc(Br)s2)CC1,inactive: -1.83%,–
Cc1ccccc1C(=O)Nc1ccc(C(=O)OCc2cc(=O)n3nc(C4CC4)sc3n2)cc1,inactive: -0.475%,–
COc1ccc2c(c1)c1c(c(=O)n(Cc3ccccc3)c(=O)n1Cc1ccc(C)cc1)n2C,–,inactive
Cc1onc(-c2ccccc2Cl)c1C(=O)N[C@@H]1C(=O)N2[C@@H]1SC(C)(C)[C@@H]2C(=O)O,inactive: -0.22%,–
CC(CNC(=O)CN1C(=O)COc2ccc(S(=O)(=O)N3CCCCC3)cc21)c1ccccc1 (stereo not given),inactive: -0.699%,–
CCC(C)NC(=O)c1[nH]c2cc(OC)ccc2c1Sc1ccc(C)cc1 (stereo not given),inactive: 3%,–
CCOC(=O)C1CCN(C(=O)c2cc3ccc4ccc(C)[nH]c4c3n2)CC1,inactive: -8.53%,–
COc1ccc(-c2cc(C(F)(F)F)n3nc(C(=O)Nc4sc5c(c4C#N)CCC(C)C5)cc3n2)cc1OC (stereo not given),inactive: 3.6%,–
CCOc1ccc(NC(=O)CC2C(=O)N(c3cccc(C)c3)C(=O)N2Cc2ccco2)cc1 (stereo not given),–,inactive
CCC1CN(C(=O)Nc2ccccc2C(F)(F)F)c2ccccc2S1 (stereo not given),–,inactive
CC(=O)N1c2ccccc2C(=O)C1N1CCN(c2cc(Cl)ccc2C)CC1 (stereo not given),inactive: -2.63%,–
CC(=O)c1ccc(N2CCN(S(=O)(=O)c3ccc4[nH]c5c(c4c3)CCCCC5)CC2)cc1,inactive: 2.47%,–
O=C(CSCc1cc(=O)c2ccccc2[nH]1)Nc1cccc(C(F)(F)F)c1,inactive: 11.4%,–
CCOC(=O)c1cccc(NC(=O)c2cnn(-c3ccccc3)c2-n2cccc2)c1,inactive: -0.153%,–
CCS(=O)(=O)c1ncc(N(Cc2cccc(F)c2)Cc2ccco2)c(C(=O)Nc2ccccc2Cl)n1,inactive: 8.18%,–

SMILES,"activity change, negative = inhibition",outcome
COC(=O)c1scc(-c2ccc(C)cc2)c1S(=O)(=O)Nc1c(C)cc(C)cc1C,inactive: 0.329%,–
COc1ccc(NC(=O)CN2C(=O)CC(c3ccco3)Sc3ccccc32)cc1OC (stereo not given),inactive: 12.2%,–
Cc1ccc2nc(CN3CCN(C(=O)Nc4cccc(C)c4C)CC3)oc2c1,–,inactive
Cc1ccc(CNC(=O)c2cc(S(=O)(=O)N3CCCCC3)cn2C)cc1,–,inactive
CCC1CN(C(=O)N2CCC(C(=O)N(C)Cc3ccccc3)CC2)c2ccccc2O1 (stereo not given),inactive: -2.29%,–
CCOc1ccccc1NC(=O)CCNS(=O)(=O)c1ccc2c(c1)CCN2C(=O)C1CC1,inactive: 5.14%,–
Cn1ncc2c(N3CCN(c4ccccc4Cl)CC3)ncnc21,inactive: -9.88%,–
Cc1ccc(OCCCC(=O)Nc2sc3c(c2C(N)=O)CCCC3)cc1,inactive: 7.84%,–
CCCCN(C)C(=O)Cn1ncc2c([nH]c3ccc(C)cc32)c1=O,inactive: 3.5%,–
Fc1ccccc1N1CCN(c2c3c(nc4nncn24)CCC3)CC1,inactive: 0.82%,–
CCC(Sc1nnc(-c2ccc(OC)cc2)c(-c2ccc(OC)cc2)n1)C(=O)Nc1cccc(OC)c1 (stereo not given),inactive: -1.59%,–
COc1ccc(NC(=O)CN(c2ccc(C)cc2)S(=O)(=O)c2cccs2)cc1OC,inactive: -2.24%,–
Cc1ccc(/C=C/c2onc(C)c2S(=O)(=O)N2CCC(C(=O)NCc3ccc(N(C)C)cc3)CC2)cc1,inactive: -1.84%,–
CCCCS(=O)CC(O)CSc1nc(-c2ccc(OC)cc2)cc(-c2ccccc2)c1C#N (stereo not given),inactive: 2.08%,–
Cc1cc(C)cc(NC(=O)c2cccc(N3CCCS3(=O)=O)c2)c1,–,inactive
COc1ccccc1NC(=O)c1sc2nc(-c3cc4ccccc4oc3=O)[nH]c(=O)c2c1C,inactive: 2.04%,–
COc1ccc(Cn2ccc3ccc(C(=O)NO)cc32)cc1,inactive: -7.36%,–
CN(Cc1ccccc1)C(=O)C1CCN(Cc2cc3ccccc3n2Cc2ccccc2)CC1,inactive: 7.75%,–
C#Cc1cccc(Nc2ncnc3cc(OCCOC)c(OCCOC)cc23)c1,inactive: -21.1%,–
Cc1cccc(NC(=O)c2c(NC(=O)c3ccco3)sc3c2CCC(C(C)(C)C)C3)c1 (stereo not given),inactive: 18%,–

SMILES,"activity change, negative = inhibition",outcome
COc1ccc(C(=O)N/C(=C\c2cn(S(=O)(=O)N(C)C)c3ccccc23)C(=O)NCCCn2ccnc2)cc1,inactive: 1.08%,–
O=C(CSc1nnc(-c2ccccc2F)o1)N1CCc2ccccc21,inactive: 18.6%,–
O=C(Cc1ccc(Cl)cc1)NCC(c1cccs1)S(=O)(=O)c1ccc(Cl)cc1 (stereo not given),inactive: -3.28%,–
Cc1cccc(C(=O)Nc2nnc(SCc3cc(=O)n4cccc(C)c4n3)s2)c1,–,inactive
COc1cccc(CNC(=O)CN2C(=O)CCn3nc(-c4cn(C)c5ccccc45)cc32)c1OC,inactive: 4.65%,–
O=C(Cn1nc(C(F)(F)F)c2c1CCCC2)Nc1ccc(Cl)cc1,inactive: 1.23%,–
CCOC(=O)c1c(C)[nH]c(CCC(=O)Nc2cc(C)cc(C)c2)c1C,–,inactive
Cc1ccc(-n2c3c(cc(-c4nc(-c5ccc(Cl)cc5)cs4)c2=O)C(=O)CC(C)(C)C3)cc1,inactive: 15.1%,–
COc1cc(OC)cc(C(=O)Nc2ccc(S(=O)(=O)Nc3onc(C)c3C)cc2)c1,inactive: -4.3%,–
Cc1ccc(NC(=O)CSc2nc(C)cc(C)c2C(=O)Nc2cccc(C)c2)cc1,inactive: -7.31%,–
CCN(CC)CCCNC(=O)c1cn(C)c2ccc(S(=O)(=O)N3CCOCC3)cc2c1=O,–,inactive
COc1ccc(NC(=O)Cn2ncc3c([nH]c4ccccc43)c2=O)cc1Cl,inactive: 11%,–
O=C(NCCc1ccccc1)c1ccc(CSc2nc3ccncc3n2Cc2ccccc2)cc1,inactive: 4.51%,–
CCOC(=O)c1cccc(NC(=O)c2cc(-c3ccc(Cl)s3)nc3ccccc23)c1,inactive: 17.1%,–
CCc1ccc(N2C(=O)CSC23C(=O)N(Cc2cccc(F)c2)c2ccccc23)cc1 (stereo not given),inactive: -25.5%,–
COc1ccc(NC(=O)CNS(=O)(=O)c2cccs2)c(OC)c1,inactive: -4.92%,–
COc1ccc(OC(C)C(=O)NCc2nc(-c3ccc(Cl)cc3)no2)cc1 (stereo not given),–,inactive
Cc1ccc(NC(=O)c2cc3c(=O)n(Cc4cccnc4)ccc3nc2C)cc1F,inactive: 1.15%,–
COc1ccc(Br)cc1CNC(=O)CN1C(=O)CSc2ccc(S(=O)(=O)N3CCOCC3)cc21,inactive: 5.94%,–
Cc1cccc(C(=O)Nc2cccc(C(=O)OCc3cc(=O)n4ccsc4n3)c2)c1,inactive: -19.9%,–
